Measured values: patent publication US20250243260A1 (ALPINE IMMUNE SCIENCES, published 2025)
Numbering of substitutions follows the chain as printed. Numbers in names are those of the source. Each block holds one binder with its values, some of them ahead of it.

Target: T1, human CD28 (endogenously expressed on primary human T cells) (human, UniProt P10747 19-220)
T1 construct: whole, on cells
Experiment: flow cytometry, primary human T cells

B1: CD80_220-Fc, variant CD80 IgV-Fc H18F/T28V/M47L/V68S (Fc fusion)
chain: VIHVTKEVKEVATLSCGFNVSVEELAQVRIYWQKEKKMVLTMMSGDLNIWPEYKNRTIFDITNNLSISILALRPSDEGTYECVVLKYEKDAFKREHLAEVTLSVKADGSGGGGS[omitted - human IgG4 Fc with S228P (EU numbers)]
notes: variant IgV - GSGGGGS - human IgG4 Fc (S228P)
MFI (anti-human Fc) at 0.8 nM: 687 MFI | MFI (anti-human Fc) at 4 nM: 1830 MFI | MFI (anti-human Fc) at 20 nM: 2920 MFI | MFI (anti-human Fc) at 100 nM: 3440 MFI | fold change of MFI vs WT CD80 at 20 nM: 16.2 fold

B4: CD80_224-Fc, variant CD80 IgV-Fc K9N/V11W/M47L/V68T/R73T/Y87N (Fc fusion)
chain: B1 chain with K9N, V11W, F18H, V28T, S68T, R73T, Y87N
notes: as for B1
MFI (anti-human Fc) at 0.8 nM: 610 MFI | MFI (anti-human Fc) at 4 nM: 1650 MFI | MFI (anti-human Fc) at 20 nM: 2680 MFI | MFI (anti-human Fc) at 100 nM: 3360 MFI | fold change of MFI vs WT CD80 at 20 nM: 14.9 fold

B6: CD80_221-Fc, variant CD80 IgV-Fc E10G/A26S/T28Y (Fc fusion)
chain: B1 chain with E10G, F18H, A26S, V28Y, L47M, S68V
notes: as for B1
MFI (anti-human Fc) at 0.8 nM: 285 MFI | MFI (anti-human Fc) at 4 nM: 544 MFI | MFI (anti-human Fc) at 20 nM: 1020 MFI | MFI (anti-human Fc) at 100 nM: 1330 MFI | fold change of MFI vs WT CD80 at 20 nM: 5.6 fold

B8: CD80_225-Fc, variant CD80 IgV-Fc V11Y/M47L/V68T (Fc fusion)
chain: B1 chain with V11Y, F18H, V28T, S68T
notes: as for B1
MFI (anti-human Fc) at 0.8 nM: 236 MFI | MFI (anti-human Fc) at 4 nM: 422 MFI | MFI (anti-human Fc) at 20 nM: 807 MFI | MFI (anti-human Fc) at 100 nM: 1280 MFI | fold change of MFI vs WT CD80 at 20 nM: 4.5 fold

B9: CD80_228-Fc, variant CD80 IgV-Fc E7Q/V11Y/R29H/M47L/V68T (Fc fusion)
chain: B1 chain with E7Q, V11Y, F18H, V28T, R29H, S68T
notes: as for B1
MFI (anti-human Fc) at 0.8 nM: 195 MFI | MFI (anti-human Fc) at 4 nM: 199 MFI | MFI (anti-human Fc) at 20 nM: 203 MFI | MFI (anti-human Fc) at 100 nM: 227 MFI | fold change of MFI vs WT CD80 at 20 nM: 1.1 fold

B11: CD80_222-Fc, variant CD80 IgV-Fc E35D/D46Q/L85E (Fc fusion)
chain: B1 chain with F18H, V28T, E35D, D46Q, L47M, S68V, L85E
notes: as for B1
MFI (anti-human Fc) at 0.8 nM: 189 MFI | MFI (anti-human Fc) at 4 nM: 213 MFI | MFI (anti-human Fc) at 20 nM: 336 MFI | MFI (anti-human Fc) at 100 nM: 636 MFI | fold change of MFI vs WT CD80 at 20 nM: 1.9 fold

B12: CD80_226-Fc, variant CD80 IgV-Fc K9R/A26T/T28Y/E35A/M47L/A71G (Fc fusion)
chain: B1 chain with K9R, F18H, A26T, V28Y, E35A, S68V, A71G
notes: as for B1
MFI (anti-human Fc) at 0.8 nM: 207 MFI | MFI (anti-human Fc) at 4 nM: 284 MFI | MFI (anti-human Fc) at 20 nM: 411 MFI | MFI (anti-human Fc) at 100 nM: 628 MFI | fold change of MFI vs WT CD80 at 20 nM: 2.3 fold

More lines, now with the values ahead:

MFI (anti-human Fc) at 0.8 nM: 198 MFI | MFI (anti-human Fc) at 4 nM: 196 MFI | MFI (anti-human Fc) at 20 nM: 203 MFI | MFI (anti-human Fc) at 100 nM: 218 MFI | fold change of MFI vs WT CD80 at 20 nM: 1.1 fold
B2: CD80_229-Fc, variant CD80 IgV-Fc V11Y/M47V/A71G/L85E (Fc fusion)
chain: B1 chain with V11Y, F18H, V28T, L47V, S68V, A71G, L85E
notes: as for B1

MFI (anti-human Fc) at 0.8 nM: 234 MFI | MFI (anti-human Fc) at 4 nM: 410 MFI | MFI (anti-human Fc) at 20 nM: 910 MFI | MFI (anti-human Fc) at 100 nM: 1640 MFI | fold change of MFI vs WT CD80 at 20 nM: 5.1 fold
B3: CD80_232-Fc, consensus variant CD80 IgV-Fc V11F/T28Y/M47L (Fc fusion)
chain: B1 chain with V11F, F18H, V28Y, S68V
notes: as for B1

MFI (anti-human Fc) at 0.8 nM: 540 MFI | MFI (anti-human Fc) at 4 nM: 1350 MFI | MFI (anti-human Fc) at 20 nM: 2290 MFI | MFI (anti-human Fc) at 100 nM: 2760 MFI | fold change of MFI vs WT CD80 at 20 nM: 12.7 fold
B5: CD80_233-Fc, consensus variant CD80 IgV-Fc V11Y/T28Y/M47L/V68M (Fc fusion)
chain: B1 chain with V11Y, F18H, V28Y, S68M
notes: as for B1

MFI (anti-human Fc) at 0.8 nM: 458 MFI | MFI (anti-human Fc) at 4 nM: 991 MFI | MFI (anti-human Fc) at 20 nM: 1680 MFI | MFI (anti-human Fc) at 100 nM: 2200 MFI | fold change of MFI vs WT CD80 at 20 nM: 9.3 fold
B7: CD80_230-Fc, variant CD80 IgV-Fc E10G/Q27F/D46N/A71G/D90G (Fc fusion)
chain: B1 chain with E10G, F18H, Q27F, V28T, D46N, L47M, S68V, A71G, D90G
notes: as for B1

MFI (anti-human Fc) at 0.8 nM: 232 MFI | MFI (anti-human Fc) at 4 nM: 397 MFI | MFI (anti-human Fc) at 20 nM: 978 MFI | MFI (anti-human Fc) at 100 nM: 2760 MFI | fold change of MFI vs WT CD80 at 20 nM: 5.4 fold
B10: CD80_231-Fc, consensus variant CD80 IgV-Fc V11W/T28Y/M47L (Fc fusion)
chain: B1 chain with V11W, F18H, V28Y, S68V
notes: as for B1
